# Laboratory results as given in PubChem BioAssay AID1347120 (National Center for Advancing Translational Sciences (NCATS), 2019).
# Screen size: about 390,000 compounds; about 930 (0.24%) were called active. Inconclusive means that the source gave no clear call. Such entries were picked first, then a sample of the others. Calls come from the whole dose curve; as a rule, active = well fitted activation curve with a large enough effect; inconclusive = small, poorly fitted or top-dose-only effect; inactive = no such curve, though single readings can be large or run the other way. Potencies beside an inconclusive call are fits to weak or partial responses and may not hold up.
# Assay: qHTS for Suppressors of FUS Proteinopathy: Primary screen using FUS-linked yeast assay; note: nearly all actives have a fitted effect of over 55% in size
# Conditions: S. cerevisiae FUS-expressing, OD600, 24 h; Potency: growth rescue; series mostly up to 76.6 µM
# In short: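 Cultures pregrown in 2.5% raffinose medium are shifted to minimal medium containing 2% galactose to express toxic FUS. Compounds are tested at several concentrations. After 24hr at 30C, growth is quantified at 600 nm absorbance.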
# Potency is the fitted concentration of half-maximal effect; tags give direction and shape of the fitted curve.
row,SMILES,Potency
1,Cc1ccc(C(=O)N/C(=C\c2cccs2)C(=O)NCCc2c[nH]c3ccccc23)cc1C,"inconclusive: 28.2 µM [activator, partial curve, poor fit]"
2,Cc1cccc(OCc2ccc(-c3nc(C#N)c(N4CCC(C(N)=O)CC4)o3)o2)c1,"inconclusive: 50.1 µM [activator, single point]"
3,CCOC(=O)CC(c1ccc(N)cc1)n1c(C)ccc1C (stereo not drawn),"inconclusive: 12.6 µM [activator, partial curve, poor fit]"
4,CCOc1cc(C(=O)Nc2ccc3oc(-c4ccc(CC)cc4)nc3c2)cc(OCC)c1OCC,inactive
5,O=S1(=O)c2ccc(N3CCN(Cc4ccccc4F)CC3)cc2Oc2ccccc2CN1Cc1cn(Cc2cccc(C(F)(F)F)c2)nn1,"inconclusive: 14.1 µM [activator, partial curve, poor fit]"
6,CCn1c(COc2ccc(Cl)cc2)nnc1SCC(=O)Nc1ccccc1-c1ccccc1,"inconclusive: 25.1 µM [activator, partial curve, poor fit]"
7,CCCCOCCCNC(=O)C[C@H]1C[C@@]2(C(=O)OC)C(=C[C@H](C(C)C)O[C@@H]2C2CC2)N(Cc2ccc(Cl)cc2Cl)C1=O,"inconclusive: 3.98 µM [activator, full curve]"
8,O=c1[nH]c(NNC(=S)NCc2ccccc2)nc2c1C1(CCCCC1)Cc1ccccc1-2,"inconclusive: 28.2 µM [activator, single point]"
9,O=C1N[C@@H](c2ccccc2)COC(=O)[C@H](Cc2ccc(F)cc2)CC/C=C/C[C@@H]1CC(=O)N(CCO)Cc1ccccc1,"inconclusive: 15.8 µM [activator, partial curve, poor fit]"
10,COc1ccc(OC)c(CCNC(=O)c2cc3c(-c4ccccc4F)nn(C)c3s2)c1,"inconclusive: 14.1 µM [activator, partial curve, poor fit]"
11,CC1(C)OC(=O)C2=C(C[C@@H](C3CCCCC3)O[C@H]2c2ccc(Cl)cc2)O1,inactive
12,COc1ccc(C)cc1NS(=O)(=O)c1ccc2c(c1)[C@H]1C=CC[C@H]1[C@@H](c1cccc(Cl)c1)N2,"inconclusive: 50.1 µM [activator, partial curve, poor fit]"
13,Cc1cccc(NC(=O)C2CCN(c3ncccn3)CC2)c1C,inactive
14,CC1=C(C(=O)Nc2cc(C(=O)N3CCN(c4cccc(C)c4C)CC3)ccc2C)SCCO1,"inconclusive: 31.6 µM [activator, single point]"
15,Cc1c(NC(=O)c2cc(-c3cccs3)nc3ccccc23)c(=O)n(-c2ccccc2)n1C,"inconclusive: 44.7 µM [activator, partial curve, poor fit]"
16,COc1ccc(N2CCN(C(=O)Cc3c(C(=O)O)c(C)cn3C)CC2)cc1,inactive
17,O=C(Cn1c(-c2cccs2)cc2cc(Cl)ccc21)NCc1ccccc1,inactive
18,COc1ccc(N2C(=O)CC(SCC(=O)O)C2=O)cc1 (stereo not drawn),inactive
19,COc1ccc(Nc2ccc3cc(S(=O)(=O)N4CCCC4)ccc3n2)cc1Cl,inactive

row,SMILES,Potency
1,O=C(Nc1ccccn1)C(NS(=O)(=O)c1cccc2nsnc12)c1ccccc1 (stereo not drawn),"inconclusive: 35.5 µM [activator, partial curve, poor fit]"
2,Cc1sc(NC(=O)CN(C(=O)c2ccccc2F)C2CCCC2)c(C(N)=O)c1C,inactive
3,Cc1ccc2oc(=O)c3cnn(CC(=O)N(C)c4ccc(F)cc4)c3c2c1,inactive
4,Cc1ccc(C)c(S(=O)(=O)N2CCCCC2CCNC(=O)C(=O)NCCc2ccco2)c1 (stereo not drawn),"inconclusive: 10 µM [activator, full curve]"
5,O=C1c2ccccc2CCC12N=NCC2c1ccc(Br)cc1 (stereo not drawn),inactive
6,COC(=O)c1cc(OC)c(OC)cc1NC(=O)C(C)Sc1ccc(C)cc1 (stereo not drawn),"inconclusive: 25.1 µM [activator, single point]"
7,Cc1ccc(C)c(NC(=O)N2CC=C(c3c[nH]c4ccccc34)CC2)c1,"inconclusive: 14.1 µM [activator, partial curve, poor fit]"
8,C#CCN1CCc2onc(-c3ccc(Br)cc3)c2C1=O,inactive
9,C=CCC[C@H](Cc1ccc(F)cc1)C(=O)OC[C@@H](Cc1c[nH]c2ccccc12)NC(=O)[C@H](CC=C)CC(=O)NCCO,"inconclusive: 28.2 µM [activator, single point]"
10,COCCNc1nc2cc(-c3ccccc3C)sc2c(=O)n1C,"inconclusive: 35.5 µM [activator, partial curve, poor fit]"
11,Cc1cc(C)cc(-n2nnc(C(=O)NCc3ccccc3)c2N)c1,"inconclusive: 39.8 µM [activator, partial curve, poor fit]"
12,CC/C(=C\C1CCCCC1)C(NP(=O)(c1ccccc1)c1ccccc1)c1ccccc1 (stereo not drawn),"inconclusive: 28.2 µM [activator, single point]"
13,CN(CCO)c1ccc(C=NNc2ccc([N+](=O)[O-])cc2S(=O)(=O)Nc2ccccc2C(=O)O)cc1,"inconclusive: 31.6 µM [activator, partial curve, poor fit]"
14,NC(=O)c1c(Nc2nc3c(F)cccc3s2)sc2c1CCCC2,"inconclusive: 17.8 µM [activator, partial curve]"
15,CSc1oc(-c2ccc(F)cc2)nc1S(=O)(=O)c1ccccc1,inactive
16,C#CCOCCOCCOCCNc1nc(N2CCN(C(=O)CCCCCCCCCCNC(=O)[C@H]([C@@H](C)CC)n3cc(CCCCCN)nn3)CC2)nc(N2CCN(C(=O)CCCCCCCCCCNC(=O)[C@H](CCCCN)n3cc(CCCC(=O)O)nn3)CC2)n1,"inconclusive: 8.91 µM [activator, full curve]"
17,Cc1ccc(C(=O)Nc2cccc(C(=O)OCc3cc(=O)n4c5c(sc4n3)CCCC5)c2)cc1,"inconclusive: 28.2 µM [activator, single point]"
18,COc1ccc(Cl)cc1NC(=O)c1c(-c2ccccc2)noc1C,inactive
19,C#CCOCCOCCOCCNc1nc(N2CCN(C(=O)CCCCCCCCCCNC(=O)Cn3cc(C[C@@H](C)O)nn3)CC2)nc(N2CCN(C(=O)CCCCCCCCCCNC(=O)[C@H](CO)n3cc(CCCSC)nn3)CC2)n1,"inconclusive: 5.01 µM [activator, full curve, poor fit]"
